For six cell lines, AUC and IC50 results are on record in the supplement of paper PMC4967469.

Common to all, as to assay: Viability of human cancer cell lines after 72 h of drug (GDSC screen)
Compound in one test: C[C@]1(O)C[C@@H](c2nc(-c3ccc4ccc(-c5ccccc5)nc4c3)c3c(N)nccn32)C1 [OSI-906]
The following applies: top dose 2.56 µM; top dose inferred. Here is the method:
(§1)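 Human cancer cell lines in 384-well plates, medium with 10% serum, drug for 72 h over a 256-fold dose range (nine 2-fold or five 4-fold steps up to the top dose). Adherent lines were fixed and stained with the nucleic acid dye Syto60, suspension lines read with resazurin; signal relative to control wells, capped at 0 and 100%. One two-parameter sigmoid per drug and line, fitted in a mixed model over all curves with the slope shared within a line.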

Compound in a further test: CCOc1nc(NC(=O)Cc2cc(OC)ccc2OC)cc(N)c1C#N [JNK Inhibitor VIII]
The following applies: top dose 10 µM; top dose inferred. Here is the method:
as §1

Compound in a further test: COC(=O)[C@H](CCSC)NC(=O)c1ccc(NC[C@@H](N)CS)cc1-c1ccccc1 [FTI-277]
The following applies: top dose 1.024 µM; top dose inferred. Here is the method:
as §1

Compound in a further test: c1ccc2c(CCNc3ccc(Nc4ccncc4)cc3)c[nH]c2c1 [JNJ-26854165]
The following applies: top dose 10 µM. The protocol: as §1

Compound in the next test: Cc1sc2c(c1C)C(c1ccc(Cl)cc1)=N[C@@H](CC(=O)OC(C)(C)C)c1nnc(C)n1-2 [JQ1]
The protocol:
as §1

Compound in the next test: Cc1ccc(C(=O)N(CCCN)[C@@H](c2nc3cc(Cl)ccc3c(=O)n2Cc2ccccc2)C(C)C)cc1 [SB-715992]
To be noted: top dose 0.128 µM; top dose inferred. The protocol:
as §1

Compound in a further test: CC1(C)CNc2cc(NC(=O)c3cccnc3NCc3ccncc3)ccc21 [AMG-706]
To be noted: top dose 2 µM; top dose inferred. The protocol: as §1

Compound in another test: O=C(/C=C/c1cccc(S(=O)(=O)Nc2ccccc2)c1)NO [Belinostat]
The following applies: top dose 20 µM; top dose inferred. Here is the method: as §1

Compound in the next test: COCC[n+]1c2c(n(Cc3cnccn3)c1C)C(=O)c1ccccc1C2=O [YM155]
The following applies: top dose 5.12 µM. Here is the method:
as §1

Compound in the next test: CN1CCN(c2ccc([N+](=O)[O-])c3no[n+]([O-])c23)CC1 [NSC-207895]
The following applies: top dose 20 µM; top dose inferred. The protocol:
as §1

Compound in another test: CC(=O)O[C@@]12CO[C@@H]1C[C@H](O)[C@@]1(C)C(=O)[C@H](O)C3=C(C)[C@@H](OC(=O)[C@H](O)[C@@H](NC(=O)OC(C)(C)C)c4ccccc4)C[C@@](O)([C@@H](OC(=O)c4ccccc4)[C@H]21)C3(C)C [Docetaxel]
To be noted: top dose 0.0125 µM. The protocol: as §1

Setting [1] is: top dose 1 µM, screen: GDSC drug entry 1218, top dose inferred.
[2] abbreviates: top dose 2.56 µM, screen: GDSC drug entry 163.

A lower IC50 marks a more sensitive line; fits outside the tested doses are given as limits. For AUC the same curve is integrated over the 256-fold range of doses and scaled to a fraction; the more sensitive the line, the further below 1. For some of these results: A top dose marked as inferred is not printed in the source and was worked back from the curve model. For some of these results: Where an entry number is given, a second screen of the drug exists; the two often differ.

Consider SU-DHL-5 (B-cell lymphoma, suspension), for which the AUC in the test with OSI-906 was 0.991; in the test with JNK Inhibitor VIII it was 0.994; with FTI-277, 0.994; with JNJ-26854165 it was 0.834; with JQ1 (setting [1]), 0.799; in the test with JQ1 (setting [2]) it was 0.614. Further, the AUC came out at 0.537 in the test with SB-715992; 0.994 with AMG-706; 0.033 with Belinostat; 0.01 with YM155; 0.385 with NSC-207895. Further, the IC50 in the test with OSI-906 is more than 2560 nM; in the test with JNK Inhibitor VIII, more than 10000 nM; with FTI-277 it was more than 1020 nM; in the test with JNJ-26854165, 4380 nM; in the test with JQ1 (setting [1]), 350 nM; with JQ1 (setting [2]), 303 nM. For the same cell line, the IC50 was 9.83 nM in the test with SB-715992; more than 2000 nM in the test with AMG-706; less than 78.1 nM with Belinostat; less than 20 nM in the test with YM155; 655 nM in the test with NSC-207895.
As to “SW900 (lung squamous cell carcinoma, adherent)”, the AUC with OSI-906 is 0.842; with JNK Inhibitor VIII, 0.969; in the test with FTI-277, 0.981; with JNJ-26854165, 0.683; with JQ1 (setting [1]), 0.98; in the test with JQ1 (setting [2]), 0.947. Besides, the AUC with SB-715992 amounted to 0.928; with AMG-706 it was 0.969; with Belinostat, 0.535; with YM155, 0.041; with NSC-207895, 0.982. The IC50 in the test with OSI-906 is 2230 nM; with JNK Inhibitor VIII, more than 10000 nM; with FTI-277 it was more than 1020 nM; with JNJ-26854165, 2220 nM; with JQ1 (setting [1]) it was more than 1000 nM; in the test with JQ1 (setting [2]), more than 2560 nM. Moreover, the half-inhibitory concentration (IC50) is more than 128 nM with SB-715992; more than 2000 nM with AMG-706; 1590 nM with Belinostat; less than 20 nM with YM155; more than 20000 nM with NSC-207895.
As for SW1573 (lung adenocarcinoma, adherent), the AUC came to 0.918 in the test with OSI-906; 0.965 with JNK Inhibitor VIII; 0.978 in the test with FTI-277; 0.853 with JNJ-26854165; 0.978 with JQ1 (setting [1]); 0.883 with JQ1 (setting [2]). Further, the AUC with SB-715992 was 0.969; with AMG-706, 0.978; with Belinostat it was 0.635; with YM155, 0.187; in the test with NSC-207895, 0.98. The IC50 in the test with OSI-906 was more than 2560 nM; with JNK Inhibitor VIII it was more than 10000 nM; in the test with FTI-277 it was more than 1020 nM; in the test with JNJ-26854165, more than 10000 nM; in the test with JQ1 (setting [1]) it was more than 1000 nM; with JQ1 (setting [2]), more than 2560 nM. For the same cell line, the half-inhibitory concentration (IC50) in the test with SB-715992 was more than 128 nM; with AMG-706 it was more than 2000 nM; with Belinostat it was 3370 nM; with YM155 it was 25.3 nM; in the test with NSC-207895, more than 20000 nM.
Take TCCSUP (bladder, adherent): the AUC with OSI-906 worked out at 0.888; in the test with JNK Inhibitor VIII, 0.984; with FTI-277, 0.875; with JNJ-26854165 it was 0.805; in the test with JQ1 (setting [1]) it was 0.978; in the test with JQ1 (setting [2]), 0.571. Moreover, the AUC with SB-715992 came out at 0.984; in the test with AMG-706, 0.965; in the test with Belinostat, 0.499; in the test with YM155 it was 0.048; with NSC-207895, 0.891. Further, the concentration for half-maximal inhibition (IC50) was more than 2560 nM in the test with OSI-906; more than 10000 nM in the test with JNK Inhibitor VIII; more than 1020 nM with FTI-277; 5940 nM in the test with JNJ-26854165; more than 1000 nM in the test with JQ1 (setting [1]); 257 nM with JQ1 (setting [2]). Further, the IC50 with SB-715992 was more than 128 nM; with AMG-706, more than 2000 nM; with Belinostat it was 1240 nM; with YM155, less than 20 nM; with NSC-207895, more than 20000 nM.
In the case of U-2-OS (osteosarcoma, adherent), the AUC was 0.956 with OSI-906; 0.979 with FTI-277; 0.745 in the test with JNJ-26854165; 0.984 in the test with SB-715992; 0.245 in the test with Belinostat; 0.658 with Docetaxel. Moreover, the AUC with NSC-207895 was found to be 0.983. Besides, the half-inhibitory concentration (IC50) with OSI-906 is more than 2560 nM; with FTI-277, more than 1020 nM; in the test with JNJ-26854165 it was 3390 nM; in the test with SB-715992, more than 128 nM; with Belinostat, 213 nM; with Docetaxel it was 2.24 nM. Moreover, the IC50 with NSC-207895 was more than 20000 nM.
Turning to VM-CUB-1 (bladder, adherent), the AUC in the test with OSI-906 is 0.971; with JNK Inhibitor VIII, 0.942; in the test with FTI-277 it was 0.944; with JNJ-26854165, 0.933; in the test with JQ1 (setting [1]), 0.981; with JQ1 (setting [2]), 0.758. For the same cell line, the AUC in the test with SB-715992 amounted to 0.987; with AMG-706, 0.938; in the test with Belinostat, 0.519; in the test with YM155 it was 0.028; in the test with NSC-207895, 0.873. Also, the IC50 with OSI-906 is more than 2560 nM; in the test with JNK Inhibitor VIII, more than 10000 nM; with FTI-277, more than 1020 nM; with JNJ-26854165 it was more than 10000 nM; in the test with JQ1 (setting [1]) it was more than 1000 nM; with JQ1 (setting [2]), 857 nM. Also, the IC50 in the test with SB-715992 is more than 128 nM; in the test with AMG-706, more than 2000 nM; with Belinostat, 1400 nM; with YM155 it was less than 20 nM; with NSC-207895, 18200 nM.

As usually defined, the IC50 is the midpoint of a concentration-inhibition curve.
